# Results as given in US20250270341A1 (Alector, published 2025).
# B1: CD98hc.03.002 (2+1 bispecific antibody) (bispecific antibody)
# heavy 1: EVRLLESGGGLVQPGGSLRLSCAASGFTFSNYAMGWVRQAPGKGLEWVSAISGSGGSTYYADSVKGRFTTSRDDSKNALYLQMNSLRAEDTAVYYCARGGPGWYAADVWGQGTTVTVSSASTKGPSVFPLAPSSKSTSGGTAALGCLVKDYFPEPVTVSWNSGALTSGVHTFPAVLQSSGLYSLSSVVTVPSSSLGTQTYICNVNHKPSNTKVDKKV[here human IgG1 Fc with changes without letters]GGGGSGGGGSGGGGSDVQLVESGGGLVQPGGSRKLSCAASGFTFSTFGMHWVRQAPEKGLEWVAYISGGSTNIYYADTVKGRFTISRDNPKNTLFLQMTSLRSEDTAMYYCARETTLLATNFDYWGQGTTLTVSSGGSEGKSSGSGSESKSTGGSDIQMTQTTSSLSASLGDRVTISCRASQDISNYLNWYQQKPDGTVKLLIYYTSRLHSGVPSRFSGSGSGTDYSLTISNLEQEDIATYFCQQGSTLPRTFGGGTKLEIK
# heavy 2: EVRLLESGGGLVQPGGSLRLSCAASGFTFSNYAMGWVRQAPGKGLEWVSAISGSGGSTYYADSVKGRFTTSRDDSKNALYLQMNSLRAEDTAVYYCARGGPGWYAADVWGQGTTVTVSS[here human IgG1 constant region with changes without letters]
# light: DIQMTQSPSSLSASVGDRVTITCRASQSISSYLNWYQQKPGKAPKLLIYAASSLQSGVPSRFSGSGSGTDFTLTISSLQPEDFATYYCQQADLPAFAFGGGTKVEIKRTVAAPSVFIFPPSDEQLKSGTASVVCLLNNFYPREAKVQWKVDNALQSGNSQESVTEQDSKDSTYSLSSTLTLSKADYEKHKVYACEVTHQGLSSPVTKSFNRGEC
# B2: CD98hc.03.004 (2+1 bispecific antibody) (bispecific antibody)
# heavy 1: EVRLLESGGGLVQPGGSLRLSCAASGFTFSNYAMGWVRQAPGKGLEWVSAISGSGGSTYYADSVKGRFTTSRDDSKNALYLQMNSLRAEDTAVYYCARGGPGWYAADVWGQGTTVTVSSASTKGPSVFPLAPSSKSTSGGTAALGCLVKDYFPEPVTVSWNSGALTSGVHTFPAVLQSSGLYSLSSVVTVPSSSLGTQTYICNVNHKPSNTKVDKKV[here human IgG1 Fc with changes without letters]GGGGSGGGGSGGGGSDVQLQESGPGLVKPSQSLSLTCTVTGYSITNNYAWNWIRRFPGNKLEWMAYISYSGYTSYNPSLKSRISITRDTSKNQFFLQLNSVTTEDTATYYCTGYFYYYGGGSFDYWGQGTTLTVSSGGSEGKSSGSGSESKSTGGSQAVVTQESALTTSPGETVTLTCRSSTGAVTTSNFANWVQEKPDHLFTGLIRGSNNRAPGVPARFSGSLIGDKAALTITGARTEDEAIYFCALWYSDHWVFGGGTKLTVL
# heavy 2: EVRLLESGGGLVQPGGSLRLSCAASGFTFSNYAMGWVRQAPGKGLEWVSAISGSGGSTYYADSVKGRFTTSRDDSKNALYLQMNSLRAEDTAVYYCARGGPGWYAADVWGQGTTVTVSS[here human IgG1 constant region with changes without letters]
# light: B1 light
# B3: CD98hc.04.058 (2+1 bispecific antibody) (bispecific antibody)
# heavy 1: EVRLLESGGGLVQPGGSLRLSCAASGFTFSNYAMGWVRQAPGKGLEWVSAISGSGGSTYYADSVKGRFTTSRDDSKNALYLQMNSLRAEDTAVYYCARGGPGWYAADVWGQGTTVTVSSASTKGPSVFPLAPSSKSTSGGTAALGCLVKDYFPEPVTVSWNSGALTSGVHTFPAVLQSSGLYSLSSVVTVPSSSLGTQTYICNVNHKPSNTKVDKKV[here human IgG1 Fc with changes without letters]GGGGSGGGGSGGGGSQVQLQQSGAELVRPGVSVKISCKASGYTFTDHTMHWVKQSHARSLEWIGVISTYFGDASYNPKFKGKATMTVDKSSNTAYMELARLTSEDSAIYYCARVGGRLRLGYYFDYWGQGTTLTVSSGGSEGKSSGSGSESKSTGGSNIMMTQSPSSLAVSAGEKVTMNCKSSQTVLYSSNQKNYLAWYQQKPGQSPKLLIYWASTRESGVPDRFTGSGSGTDFTLTISSVQVEDLAVYYCHQYLSSYTFGGGTKLEIK
# heavy 2: EVRLLESGGGLVQPGGSLRLSCAASGFTFSNYAMGWVRQAPGKGLEWVSAISGSGGSTYYADSVKGRFTTSRDDSKNALYLQMNSLRAEDTAVYYCARGGPGWYAADVWGQGTTVTVSS[here human IgG1 constant region with changes without letters]
# light: B1 light
# B4: CD98hc.04.063 (2+1 bispecific antibody) (bispecific antibody)
# heavy 1: EVRLLESGGGLVQPGGSLRLSCAASGFTFSNYAMGWVRQAPGKGLEWVSAISGSGGSTYYADSVKGRFTTSRDDSKNALYLQMNSLRAEDTAVYYCARGGPGWYAADVWGQGTTVTVSSASTKGPSVFPLAPSSKSTSGGTAALGCLVKDYFPEPVTVSWNSGALTSGVHTFPAVLQSSGLYSLSSVVTVPSSSLGTQTYICNVNHKPSNTKVDKKV[here human IgG1 Fc with changes without letters]GGGGSGGGGSGGGGSEVKLEESGGGLVQPGGSMILSCVASGFTFSNSWMNWVRQSPEKGLEWVAEIRLRSNNYATHYAESVKGRFTISRDDSKSTVYLQMNNLRAEDTGIYYCSRGDPGAYWGQGTLVTVSAGGSEGKSSGSGSESKSTGGSDIQMTQSSSYLSVSLGNRVTITCKASDHIKNWLAWFQQKPGNAPRLLISGATILETGVPSRFSGSGSGKDYTLSITSLQTEDVATYYCQQYWSTPYTFGGGTKLEIK
# heavy 2: EVRLLESGGGLVQPGGSLRLSCAASGFTFSNYAMGWVRQAPGKGLEWVSAISGSGGSTYYADSVKGRFTTSRDDSKNALYLQMNSLRAEDTAVYYCARGGPGWYAADVWGQGTTVTVSS[here human IgG1 constant region with changes without letters]
# light: B1 light
# B5: CD98hc.04.064 (2+1 bispecific antibody) (bispecific antibody)
# heavy 1: EVRLLESGGGLVQPGGSLRLSCAASGFTFSNYAMGWVRQAPGKGLEWVSAISGSGGSTYYADSVKGRFTTSRDDSKNALYLQMNSLRAEDTAVYYCARGGPGWYAADVWGQGTTVTVSSASTKGPSVFPLAPSSKSTSGGTAALGCLVKDYFPEPVTVSWNSGALTSGVHTFPAVLQSSGLYSLSSVVTVPSSSLGTQTYICNVNHKPSNTKVDKKV[here human IgG1 Fc with changes without letters]GGGGSGGGGSGGGGSQVQLQQPGAELVRPGASVKLSCKASGYTFTSYWMNWVRQRPGQGLEWIGLIDPSDSETHYNQMFKDRATLTVDKSSSTAYMQLSSLTSADPAVYYCARASYGKGYFDYWGQGTTLTVSSGGSEGKSSGSGSESKSTGGSDIVMTQSPSSLAMSVGQKVTMSCKSSQSLLNNINQKNYLAWYQQKPGQSPKLLVYFASTRESGVPDRFIGSGSGTDFTLTINTVQAEDLADYFCQQHYSSPFTFGGGTKLEIK
# heavy 2: EVRLLESGGGLVQPGGSLRLSCAASGFTFSNYAMGWVRQAPGKGLEWVSAISGSGGSTYYADSVKGRFTTSRDDSKNALYLQMNSLRAEDTAVYYCARGGPGWYAADVWGQGTTVTVSS[here human IgG1 constant region with changes without letters]
# light: B1 light
# notes: also called mouse CD98hc.04.064
# B6: CD98hc.04.018 (2+1 bispecific antibody) (bispecific antibody)
# heavy 1: EVRLLESGGGLVQPGGSLRLSCAASGFTFSNYAMGWVRQAPGKGLEWVSAISGSGGSTYYADSVKGRFTTSRDDSKNALYLQMNSLRAEDTAVYYCARGGPGWYAADVWGQGTTVTVSSASTKGPSVFPLAPSSKSTSGGTAALGCLVKDYFPEPVTVSWNSGALTSGVHTFPAVLQSSGLYSLSSVVTVPSSSLGTQTYICNVNHKPSNTKVDKKV[here human IgG1 Fc with changes without letters]GGGGSGGGGSGGGGSQIQLVQSGPELKKPGETVKISCKASGYTFRNYGMNWVKQAPGKGLKWMGWINTYTGEPTYAEDFKGRFAFSLETSASTAYLQINKLKNEDEATYFCARGEAHWYFDVWGAGTTVTVSSGGSEGKSSGSGSESKSTGGSQIVLTQSPAIMSASLGERVTMTCTASSSVSSSYLYWYQQKPGSSPKLWIYSIFNLASGVPARFSGSGSGTSYSLTISSMEAEDAATYYCHQYHRSPPTFGGGTKLEIK
# heavy 2: EVRLLESGGGLVQPGGSLRLSCAASGFTFSNYAMGWVRQAPGKGLEWVSAISGSGGSTYYADSVKGRFTTSRDDSKNALYLQMNSLRAEDTAVYYCARGGPGWYAADVWGQGTTVTVSS[here human IgG1 constant region with changes without letters]
# light: B1 light
# Target: T1, huCD98hc ECD Avi-His (human, UniProt P08195 105-529)
# T1 construct: biotinylated on the Avi tag where captured on streptavidin; also called Human CD98-AVI-His; Human CD98hc-AVI-His
# T1 sequence: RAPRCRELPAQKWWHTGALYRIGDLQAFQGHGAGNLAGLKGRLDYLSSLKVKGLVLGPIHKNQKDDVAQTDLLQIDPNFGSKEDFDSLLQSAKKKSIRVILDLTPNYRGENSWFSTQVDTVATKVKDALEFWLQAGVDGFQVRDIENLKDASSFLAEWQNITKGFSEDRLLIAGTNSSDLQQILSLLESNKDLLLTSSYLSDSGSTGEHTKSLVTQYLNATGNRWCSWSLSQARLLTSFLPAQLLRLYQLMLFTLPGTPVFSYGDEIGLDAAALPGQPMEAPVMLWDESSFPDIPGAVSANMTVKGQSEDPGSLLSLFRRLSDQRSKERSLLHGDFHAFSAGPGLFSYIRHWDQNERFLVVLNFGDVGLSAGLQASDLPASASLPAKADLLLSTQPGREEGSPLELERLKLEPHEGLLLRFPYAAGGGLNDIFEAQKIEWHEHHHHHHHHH
# Assay: SPR, Carterra LSA, antibody immobilized
# Description: (§1) Binding kinetics of 2+1 anti-CD98hc bispecific antibodies (from the hybridoma campaigns) to human and cyno CD98hc Avi-His were evaluated using a Carterra LSA instrument (Carterra, Salt Lake City, UT). The 2+1 anti-CD98hc bispecific antibodies were prepared in duplicates by diluting 50-fold into 10 mM Acetate, pH 5.0 (Carterra) to give final concentration of 20 μg/mL. An HC200M sensor chip (Carterra) was activated using the single channel flow cell with a 7-minute injection of a 1:1:1 mixture of 100 mM MES pH 5.5, 100 mM sulfo-NHS, 400 mM EDC (all reconstituted in MES pH 5.5; 100 μl of each mixed in vial immediately before running assay). After switching to the multi-channel array flow cell, the antibodies were injected over the activated chip in four 96-spot arrays for 15 minutes each. The remaining unconjugated active groups on the chip were then blocked by injecting 1M Ethanolamine pH 8.5 (Carterra) for 7 minutes using the single channel flow cell. The resulting sensor chip contained eight spots for each antibody, at four different densities. Two independent experiments were performed as follows, resulting in an N of between one and eight determinations for each antibody. Spots that yielded less than 20 RU of analyte binding were excluded from further analysis.
# (§2) After priming with running buffer HBS-EP+ (Teknova) with 0.5 mg/ml BSA (MP Biomedicals), the immobilized 2+1 anti-CD98hc bispecific antibodies were tested for their ability to bind to several forms of CD98hc Avi-His, including human and cyno orthologs described above. Estimates of affinity were generated by injecting each analyte over the entire antibody array using the single channel flow cell. CD98hc Avi-His analytes were diluted with running buffer, in a series of six, three-fold serial dilutions starting from 600 nM for human and cyno CD98hc Avi-His. Analytes were injected for 5 minutes, and dissociation was followed for 10 minutes. After each analyte injection, antibodies were regenerated with Pierce IgG Elution Buffer (ThermoScientific). Data were processed and analyzed using NextGenKIT high-throughput kinetics analysis software (Carterra).
# (§3) The equilibrium dissociation constants (KD) were calculated from the fitted association and dissociation rate constants (k-on and k-off) for 2+1 anti-CD98hc bispecific antibodies of the present disclosure.
row,Binder,Kd
1,B1,19 nM
2,B2,9.1 nM
3,B3,25 nM
4,B4,78 nM
5,B5,26 nM

# Target: T2, Cyno CD98hc ECD Avi-His (cynomolgus macaque, UniProt P08195 105-529 (human entry))
# T2 construct: biotinylated on the Avi tag where captured on streptavidin; also called Cyno CD98-AVI-His; Cyno CD98hc-AVI-His
# T2 chain: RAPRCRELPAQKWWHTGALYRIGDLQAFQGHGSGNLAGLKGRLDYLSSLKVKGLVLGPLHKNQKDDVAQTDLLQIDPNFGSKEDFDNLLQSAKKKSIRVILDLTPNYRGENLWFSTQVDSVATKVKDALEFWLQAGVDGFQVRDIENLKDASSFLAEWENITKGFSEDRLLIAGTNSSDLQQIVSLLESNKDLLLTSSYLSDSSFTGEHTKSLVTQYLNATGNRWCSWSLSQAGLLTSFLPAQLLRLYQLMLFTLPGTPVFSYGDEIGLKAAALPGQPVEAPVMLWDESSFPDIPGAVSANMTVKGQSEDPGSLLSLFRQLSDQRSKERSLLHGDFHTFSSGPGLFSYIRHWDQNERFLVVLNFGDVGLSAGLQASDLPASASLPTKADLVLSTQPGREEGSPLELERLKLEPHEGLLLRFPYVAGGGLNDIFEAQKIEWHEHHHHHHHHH
# Assay: SPR, Carterra LSA, antibody immobilized
# Description: as §1, §2, §3
row,Binder,Kd
1,B1,31 nM
2,B2,48 nM
3,B6,29 nM
